From PMC10668032 come the findings set out here.

The other results are listed elsewhere or left out. At the low end of the ranking, values are background and their order means little.

The assay has as its target SIX1 homeodomain (reference allele) (UniProt Q15475). Description: universal protein binding microarray. As to conditions: Universal all-10-mer PBM (8x60K, AMADID 030236), 300 nM GST-tagged protein, Alexa Fluor 488 anti-GST; buffer, salt, pH and temperature not stated; high values mean tight binding; most listed sequences are background and not binding sites; double strand, one strand shown.
Regarding AATCTCGA, the binding signal was -0.0708 E-score.
On to ATCACTGA, for which the binding signal is 0.243 E-score.
Take TAGAACTA: the binding signal was -0.168 E-score.
In the case of CGAAGATA it was 0.325 E-score.
Take AACGCACC: the binding signal is -0.0365 E-score.
With AAGTTAGA the figure was 0.0886 E-score; with AACGAGCG, -0.0799 E-score.
Consider CTCGATAC, for which the binding signal came to 0.41 E-score.
With CATCAATG the figure was 0.0199 E-score.
With ACACGTAT the figure was 0.365 E-score; with ATCGCGAC, 0.232 E-score; with GAACCGAC, -0.0194 E-score.
In the case of ACGCAGTG, the binding signal is -0.132 E-score.
As to GAAAACAA, the binding signal is -0.0524 E-score.
In the case of ATATACCC it was 0.446 E-score.
In the case of GATTCGCA it was -0.0805 E-score; in that of AAGGTCGT, -0.197 E-score; in that of GAGGATGC, 0.0652 E-score.
With CACCAGCA the figure was 0.0581 E-score; with ATCCGTTA, 0.283 E-score.
Consider CTGCTTTC, for which the binding signal is -0.0661 E-score.
Turning to CTTAAACA, the binding signal is -0.158 E-score.
As to CGCGGCGC, the binding signal worked out at 0.0414 E-score.
With AAGAGGAC the figure was -0.145 E-score.
For the sequence CGGTTAAA, the binding signal is -0.0979 E-score.
For the sequence ACCAGGGA, the binding signal stood at 0.0267 E-score.
ATCCCGTA: the binding signal is 0.342 E-score.
For AATTGATC, the binding signal is 0.291 E-score.
Regarding GCCAAAAA, the binding signal is -0.161 E-score.
In the case of ACAGAGGA it was 0.0638 E-score; in that of AGAAAACC, -0.131 E-score.
Consider AAGTGTTG, for which the binding signal was -0.152 E-score.
In the case of AGACTACG it was -0.17 E-score; in that of GTCAAACA, -0.0981 E-score.
For GCTGCTAA, the binding signal was -0.064 E-score.
For the sequence AACTCCGC, the binding signal was -0.234 E-score.
Regarding GGACACCA, the binding signal worked out at 0.386 E-score.
As for GAAGTAGC, the binding signal was -0.165 E-score.
As for GATTAACA, the binding signal amounted to 0.106 E-score.
For the sequence CTCTACAC, the binding signal was determined as 0.163 E-score.
CTTAGGAC: the binding signal is -0.176 E-score.
In the case of GGGGACCA, the binding signal is -0.151 E-score.
For CATGGAAC, the binding signal was -0.254 E-score.
In the case of AGAGATAA, the binding signal worked out at 0.13 E-score.
With GTATCCGA the figure was 0.426 E-score; with AGTGGAAG, -0.0264 E-score; with ACCTAGGC, -0.229 E-score.
In the case of AGAACGAT it was 0.18 E-score.
In the case of ATCAAACG it was -0.0343 E-score; in that of CCTCGAAC, -0.163 E-score.
With ACTAGCAA, the binding signal was -0.00466 E-score.
In the case of ATTCCAAA it was 0.0345 E-score; in that of AAACTGAC, -0.252 E-score.
With CAAATCGC the figure was -0.242 E-score; with GATCGGCC, 0.255 E-score.
In the case of ACTGAAAT it was -0.234 E-score.
On to AGTAGACT, for which the binding signal was -0.136 E-score.
In the case of CGCGCGAG it was -0.0823 E-score.
In the case of ACCTCGAG it was 0.0888 E-score; in that of ATATGCAC, 0.198 E-score.
In the case of TAGGACCA it was -0.08 E-score; in that of GCGGGCTA, -0.0522 E-score; in that of GCATTACC, -0.0175 E-score.
On to GCGTATCC, for which the binding signal is 0.369 E-score.
In the case of ATCATGTA it was 0.257 E-score.
For TGGACTAA, the binding signal is -0.208 E-score.
With AACTCCCA the figure was -0.0666 E-score; with ACATAAAA, -0.008 E-score; with CACTGCAC, 0.0751 E-score.
With ACGGCGAG the figure was -0.071 E-score.
With AAGTTCAC the figure was -0.211 E-score; with CAGTCGGG, 0.0175 E-score; with GCTGGCAC, -0.137 E-score.
As for AAAGGTCT, the binding signal is -0.185 E-score.
With AGTAGTCA the figure was -0.147 E-score; with GGCGTAGA, -0.177 E-score.
For ATGGTCAA, the binding signal is -0.0625 E-score.
As to ACGGCTCT, the binding signal was 0.0166 E-score.
In the case of CACAGCTG it was -0.0844 E-score.
With CCCAAATA the figure was -0.0212 E-score; with CTTCCGTC, -0.151 E-score; with GCGCTCCC, -0.0596 E-score.
With AGCCCGGC the figure was -0.116 E-score; with CTCTCCGA, 0.0387 E-score.
With CAAGGTAA, the binding signal was -0.0994 E-score.
In the case of ACTCATGA it was 0.0933 E-score; in that of ATGCTGCA, -0.164 E-score.
With ACGAATCA the figure was -0.0422 E-score.
Turning to GCAAAGAC, the binding signal was -0.283 E-score.
In the case of GACCTATA it was 0.0813 E-score.
CCGCGGAA: the binding signal is -0.05 E-score.
Take CGTGGGGC: the binding signal is -0.0255 E-score.
With GCGAAGAC the figure was -0.175 E-score.
Consider ACGAGTTC, for which the binding signal was -0.125 E-score.
Consider GGTGCGAA, for which the binding signal was -0.0168 E-score.
As to CAAGGGAA, the binding signal is -0.151 E-score.
As to GCTAGGCA, the binding signal was -0.21 E-score.
As to GTTCCCAA, the binding signal is -0.0489 E-score.
GTAAGTGA: the binding signal amounted to 0.149 E-score.
In the case of CATTGGCG it was -0.197 E-score; in that of ATCAGCCG, 0.131 E-score; in that of CGCTTCGA, -0.0359 E-score.
With ACCTAAGT the figure was -0.00969 E-score.
ACGGACTA: the binding signal was -0.0194 E-score.
In the case of ACCCTCAC, the binding signal was -0.0323 E-score.
For the sequence AATACCGT, the binding signal was 0.318 E-score.
On to GTTCTATA, for which the binding signal was 0.139 E-score.
With GGCGCCAA the figure was -0.241 E-score.
For AATGTTTA, the binding signal was -0.215 E-score.
In the case of AAATACCC it was 0.2 E-score; in that of AGAAGCTC, -0.125 E-score.
In the case of CGTGCGGA, the binding signal is -0.0228 E-score.
In the case of GCATGGAA, the binding signal is -0.218 E-score.
Turning to AAACTTTA, the binding signal was -0.0735 E-score.
With CTTATTAA the figure was -0.099 E-score; with AGGAGAAC, -0.0661 E-score.
As to AAACCTTC, the binding signal is -0.0706 E-score.
Take AATTGGAT: the binding signal is 0.245 E-score.
In the case of GGACGACC it was -0.126 E-score.
In the case of CCGCTGTA it was -0.018 E-score; in that of GGTAGTAC, -0.0291 E-score.
In the case of AAAAGGGA it was -0.0765 E-score; in that of AAGGGCAA, -0.113 E-score; in that of CCCAGCAA, -0.0549 E-score.
For the sequence ATGTCCTA, the binding signal turned out to be 0.01 E-score.
With AATTGCAT the figure was -0.171 E-score; with TATCATCA, 0.412 E-score.
Regarding CAGTACTG, the binding signal is -0.17 E-score.
In the case of ACAAGTTA it was -0.0731 E-score; in that of AAGATATT, 0.214 E-score.
In the case of GGACGGAC it was -0.171 E-score; in that of GATGGGCC, -0.169 E-score.
Turning to CTAATAAC, the binding signal was -0.0636 E-score.
In the case of CCCTGCGA it was 0.0553 E-score.
In the case of GTTCACAA it was -0.167 E-score; in that of ACCCTAAT, -0.0309 E-score.
Take ATACCTAA: the binding signal came to 0.273 E-score.
Regarding AGAGAAAG, the binding signal was -0.109 E-score.
As for AAAAACCG, the binding signal was found to be 0.0268 E-score.
In the case of GCTGGTAC it was -0.0625 E-score.
With GATAGTCC the figure was 0.24 E-score.
In the case of GACGAAGA, the binding signal is -0.0867 E-score.
In the case of CCATGGCG it was 0.137 E-score; in that of CCGAGTGC, 0.0163 E-score; in that of ACCGATAG, 0.352 E-score.
For the sequence ACCGATCT, the binding signal turned out to be 0.251 E-score.
With AGCGCTAC the figure was -0.205 E-score; with CTATTGTC, -0.201 E-score; with CGAGTTGA, -0.0799 E-score.
With ACTATTGA the figure was 0.061 E-score.
Turning to GGTCAAAC, the binding signal is -0.287 E-score.
In the case of ATTTTAAC it was -0.2 E-score.
In the case of CTTATCAA, the binding signal is 0.0875 E-score.
In the case of CCGTACTC it was -0.128 E-score.
Turning to CAAGGATG, the binding signal was -0.0235 E-score.
For GGTAACTA, the binding signal was 0.159 E-score.
For the sequence ACAGCGGG, the binding signal was -0.149 E-score.
With GCGAGCAC the figure was -0.111 E-score.
In the case of AAGGCTTC it was -0.115 E-score; in that of AAACGTCT, -0.0863 E-score; in that of AGCTCCGC, -0.0815 E-score.
With GATATCCC, the binding signal is 0.487 E-score.
Consider CGTCCGTC, for which the binding signal was -0.272 E-score.
Consider ATAACGAC, for which the binding signal was found to be 0.0188 E-score.
With ACTCTCAT the figure was 0.0192 E-score; with ATTTCGAC, -0.32 E-score; with CCAGCGTA, -0.0796 E-score.
For the sequence AACTGCAA, the binding signal is -0.232 E-score.
In the case of CTTCCCGC it was -0.135 E-score; in that of AGGATTTG, -0.0657 E-score; in that of ACCCAACC, 0.0305 E-score.
In the case of CTATGGGC it was -0.218 E-score.
